The record followed here is patent EP1586565A1, “Substituted polycyclic aryl and heteroaryl pyrazinones useful for selective inhibition of the coagulation cascade” (Pharmacia Corporation, priority 1999, dated 2000).

The target in one assay is Trypsin (Sus scrofa, UniProt P00761). In words: Trypsin Assay. As to conditions: read-out: IC50 or % Inhibition Trpysin II (30 uM); cells printed as bare numbers (IC50).
The target of another assay is T1, TF-VIIa (Homo sapiens, UniProt P08709).
T1 construct: An extrinsic pathway is initiated by the conversion of coagulation factor VII to VIIa by Xa; purchased American Diagnostica, Greenwich CT; Soluble TF was made in house in E. coli
T1 sequence (P08709 213-466 limits assumed): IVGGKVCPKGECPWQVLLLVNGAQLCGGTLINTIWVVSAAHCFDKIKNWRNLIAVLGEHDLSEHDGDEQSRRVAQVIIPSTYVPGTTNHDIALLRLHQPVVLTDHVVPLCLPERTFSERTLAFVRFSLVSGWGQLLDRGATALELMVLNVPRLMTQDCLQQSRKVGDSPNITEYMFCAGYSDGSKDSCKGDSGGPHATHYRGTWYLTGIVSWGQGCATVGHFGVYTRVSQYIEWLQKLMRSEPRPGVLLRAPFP
T1 sequence (P08709 61-212 limits assumed): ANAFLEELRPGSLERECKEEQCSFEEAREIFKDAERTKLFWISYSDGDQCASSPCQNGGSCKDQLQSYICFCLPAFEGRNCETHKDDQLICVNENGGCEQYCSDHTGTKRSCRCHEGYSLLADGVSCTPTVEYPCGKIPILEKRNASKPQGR
T1 sequence (P13726 33-251 partner limits assumed): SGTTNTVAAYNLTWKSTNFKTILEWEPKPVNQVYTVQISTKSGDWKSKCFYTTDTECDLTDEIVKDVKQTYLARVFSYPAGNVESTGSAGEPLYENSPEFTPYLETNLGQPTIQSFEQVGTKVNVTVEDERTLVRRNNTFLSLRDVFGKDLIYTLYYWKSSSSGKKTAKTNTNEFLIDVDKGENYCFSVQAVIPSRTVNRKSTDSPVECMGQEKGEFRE
In words: TF-VIIa Assay. The assay is classed as biochemical. As to conditions: % inhibition at 30 µM (cells with % or %@30, bare 0).

A further assay deals with T2, Human factor Xa (Homo sapiens, UniProt P00742).
T2 construct: leads from XII to XIIa to XIa to IXa and to the conversion of X to Xa; purchased Enzyme Research Laboratories, South Bend IN
T2 sequence (P00742 235-488 limits assumed): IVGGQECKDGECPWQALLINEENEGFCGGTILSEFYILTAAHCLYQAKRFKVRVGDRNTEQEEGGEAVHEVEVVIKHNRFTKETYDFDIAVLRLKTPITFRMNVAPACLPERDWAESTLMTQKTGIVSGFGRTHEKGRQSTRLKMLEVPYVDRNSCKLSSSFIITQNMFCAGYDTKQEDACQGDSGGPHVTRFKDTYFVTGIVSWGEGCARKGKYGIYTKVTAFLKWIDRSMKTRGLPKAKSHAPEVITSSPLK
T2 sequence (P00742 41-179 limits assumed): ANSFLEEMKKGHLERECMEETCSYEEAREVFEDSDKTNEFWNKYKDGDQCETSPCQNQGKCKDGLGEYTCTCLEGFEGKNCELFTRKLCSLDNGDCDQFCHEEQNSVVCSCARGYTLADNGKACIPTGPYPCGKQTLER
The experiment in a line: Xa Assay. The assay is classed as biochemical. The following applies: for IC50: cells printed as bare numbers (IC50), read-out: IC50 or % Inhibition Factor Xa (30 µM).

Sequence of Trypsin (P00761 9-231): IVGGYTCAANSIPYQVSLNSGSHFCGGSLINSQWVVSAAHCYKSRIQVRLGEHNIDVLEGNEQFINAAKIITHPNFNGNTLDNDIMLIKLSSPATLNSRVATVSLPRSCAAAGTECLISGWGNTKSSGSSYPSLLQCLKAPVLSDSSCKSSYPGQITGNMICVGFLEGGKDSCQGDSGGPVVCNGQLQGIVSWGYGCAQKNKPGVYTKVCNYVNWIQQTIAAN

Usually IC50 stands for the concentration that inhibits the measured activity by half. In the case of `N=C(N)c1ccc(CNC(=O)Cn2c(-c3ccccc3)c(Cl)nc(NCCc3ccccc3)c2=O)cc1` [1471-15], on Trypsin, the 50% inhibitory concentration (IC50) turned out to be 240 nM. On the same count and under the same terms, as for `COc1ccc(-c2c(Cl)nc(NCCc3ccccc3)c(=O)n2CC(=O)NCc2ccc(C(=N)N)cc2)cc1` [1471-39], the figure is 290 nM; as for `N=C(N)c1ccc(CNC(=O)Cn2c(-c3ccccc3)c(Cl)nc(NCc3cccc(C(F)(F)F)c3)c2=O)cc1` [1507-01], 900 nM. As for `CC(C)(C)C1CCC(Nc2nc(Cl)c(-c3ccccc3)n(CC(=O)NCc3ccc(C(=N)N)cc3)c2=O)CC1` (stereo not drawn) [1512-17], the “IC50 or % Inhibition TF-VIIa (30 µM)” value against TF-VIIa was determined as 39%. Also, at Human factor Xa (% inhibition at 30 µM (cells with % or %@30, bare 0)), the “IC50 or % Inhibition Factor Xa (30 µM)” value is 4%. Take `COc1cccc(-c2c(Cl)nc(NCCc3ccccc3)c(=O)n2CC(=O)NCc2ccc(C(=N)N)cc2)c1` [1515-29]: the half-maximal inhibitory concentration (IC50) on Human factor Xa is more than 30000 nM; on Trypsin it was 2200 nM. The corresponding values for `N=C(N)c1ccc(CNC(=O)Cn2c(-c3ccc(C(F)(F)F)cc3)c(Cl)nc(NCCc3ccccc3)c2=O)cc1` [1515-32] are more than 30000 nM and 1400 nM. Consider `N=C(N)c1ccc(CNC(=O)Cn2c(-c3ccccc3C(F)(F)F)c(Cl)nc(NCCc3ccccc3)c2=O)cc1` [1515-36], for which the IC50 on Human factor Xa was more than 30000 nM; on Trypsin it was 5400 nM.

Turning to `C=CCNc1nc(Cl)c(-c2ccccc2)n(CC(=O)NCc2ccc(C(=N)N)cc2)c1=O` [1517-38], the IC50 on Trypsin was found to be 330 nM. Regarding `CNc1nc(Cl)c(-c2ccccc2)n(CC(=O)NCc2ccc(C(=N)N)cc2)c1=O` [1517-39], the half-inhibitory concentration (IC50) on Trypsin was determined as 430 nM.

For the compound `CC(C)Nc1nc(Cl)c(-c2ccccc2)n(CC(=O)NCc2ccc(C(=N)N)cc2)c1=O` [1517-44], the half-maximal inhibitory concentration (IC50) on Trypsin turned out to be 220 nM. Same read-out and setting: next, `CCNc1nc(Cl)c(-c2ccccc2)n(CC(=O)NCc2ccc(C(=N)N)cc2)c1=O` [1517-46]: 360 nM. As for `N=C(N)c1ccc(CNC(=O)Cn2c(-c3ccccc3)c(Cl)nc(NCCO)c2=O)cc1` [1522-02], the IC50 was more than 30000 nM on Human factor Xa and 200 nM at Trypsin. In the case of `N=C(N)c1ccc(CNC(=O)Cn2c(-c3ccccc3)c(Cl)nc(NCCCCO)c2=O)cc1` [1522-05], the IC50 was more than 30000 nM at Human factor Xa and 200 nM on Trypsin. Take `N=C(N)c1ccc(CNC(=O)Cn2c(-c3ccccc3)c(Cl)nc(NCCCCCCO)c2=O)cc1` [1522-07]: the IC50 on Human factor Xa is more than 30000 nM; at Trypsin it was 150 nM.

For `CCC(CC)Nc1nc(Cl)c(-c2ccccc2)n(CC(=O)NCc2ccc(C(=N)N)cc2)c1=O` [1522-11], the 50% inhibitory concentration (IC50) at Human factor Xa is more than 30000 nM; at Trypsin, 200 nM. In the case of `C#CCNc1nc(Cl)c(-c2ccccc2)n(CC(=O)NCc2ccc(C(=N)N)cc2)c1=O` [1522-21], the IC50 on Human factor Xa is more than 30000 nM; on Trypsin, 200 nM. Consider `N=C(N)c1ccc(CNC(=O)Cn2c(-c3ccccc3)c(Cl)nc(N3CCCC3)c2=O)cc1` [1522-27], for which the IC50 was more than 30000 nM on Human factor Xa and 350 nM at Trypsin. Regarding `N=C(N)c1ccc(CNC(=O)Cn2c(-c3ccccc3)c(Cl)nc(NCCCO)c2=O)cc1` [1522-41], the concentration for half-maximal inhibition (IC50) was more than 30000 nM on Human factor Xa and 200 nM at Trypsin. As to `CCNc1nc(Cl)c(-c2cccc(N)c2)n(CC(=O)NCc2ccc(C(=N)N)cc2)c1=O` [1526-12], the IC50 on Trypsin was determined as 200 nM.

In the case of `CC(C)Nc1nc(Cl)c(-c2cccc(N)c2)n(CC(=O)NCc2ccc(C(=N)N)cc2)c1=O` [1526-24], the IC50 at Human factor Xa is more than 30000 nM; on Trypsin, 170 nM.

`N=C(N)c1ccc(CNC(=O)Cn2c(-c3cccc(O)c3)c(Cl)nc(NC3CCC3)c2=O)cc1` [Example 67]: at Trypsin, the IC50 is 140 nM.
